Source: PubChem BioAssay AID1345083 (National Center for Advancing Translational Sciences (NCATS), 2018)
Among all 94,000 compounds or so, about 6,200 (6.6%) were called active. This list was built around the results that the source calls inconclusive (neither active nor inactive); the mix of calls is not that of the screen. Calls come from the whole dose curve; as a rule, active = well fitted inhibition curve with a large enough effect; inconclusive = small, poorly fitted or top-dose-only effect; inactive = flat fitted curve, though single readings scatter. Potencies beside an inconclusive call are fits to weak or partial responses and may not hold up.

Test: Cytotoxic Profiling in HEK 293 Cell Line of Diverse Libraries Using Quantitative High-Throughput Screening; note: nearly all actives have a fitted effect of over 60% in size
Details: HEK 293 viability, ATP luminescence (CellTiter-Glo), 48-72 h; series mostly up to 115 µM
Procedure, shortened: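 250 HEK 293 cells/well; compound by pintool; incubated 48 or 72 hr at 37 degree Celsius; CellTiter-Glo added, 10 min RT, luminescence imaged.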
Potency is the fitted concentration of half-maximal effect; tags give direction and shape of the fitted curve.

Compound	Potency
O=C(O)c1cccc2c1CCN2C(=O)Nc1ccc(F)cc1	active: 8.91 µM
Cn1cccc1C(=O)N1CCC(c2noc(COc3ccc(F)cc3)n2)CC1	inconclusive: 39.8 µM [inhibitor, partial curve, poor fit]
COc1ccccc1N1CCCc2ncc(C(=O)N3CCCC[C@@H]3c3ccccc3)cc21	active: 89.1 µM
COc1ccc(Cn2c(-c3ccc(F)cc3)nc(C)c(CCO)c2=O)cc1F	inconclusive: 50.1 µM [inhibitor, partial curve, poor fit]
CCOc1ccccc1CN1CCCCCNC(=O)[C@@H]2CCC[C@@H]21	inconclusive: 50.1 µM [inhibitor, partial curve, poor fit]
Cn1cccc1CN1CCC2(CC1)COc1ccccc1NC2=O	inconclusive: 100 µM [inhibitor, partial curve, poor fit]
COc1ccc(OCc2nc(C3CN(C(=O)c4cccn4C)C3)no2)cc1	inconclusive: 79.4 µM [inhibitor, partial curve, poor fit]
O=C(c1ccc(C(F)(F)F)cc1)N1CCC2(CN[S+](=O)([O-])c3ccccc3N2)C1 (stereo unspecified)	inactive
CCO[C@H]1CN(C(=O)Cc2ccccc2OCc2ccccc2)C[C@@H]1O	inconclusive: 35.5 µM [inhibitor, single point]
CN1CC(=O)N(C2CCCNCC2)Cc2c(NCc3cccs3)ncnc21 (stereo unspecified)	inactive
COc1cccc(C(=O)N2CCc3nc(C4CC4)nc(-c4ccc(O)cc4)c3C2)c1	inconclusive: 50.1 µM [inhibitor, partial curve]
O=C(NCc1ccc(Cl)cc1)c1cc(-c2ccc(Cl)cc2Cl)c2nncn2n1	inconclusive: 44.7 µM [inhibitor, partial curve, poor fit]
C[C@@H]1CN(c2ccc3nnc(-c4ccccn4)n3n2)C[C@H](C)O1	inconclusive: 100 µM [inhibitor, single point]
CNC(=O)c1cc(C2CC2)nc2onc(C3CCN(C(=O)c4ccc(OC)cc4)CC3)c12	inconclusive: 89.1 µM [inhibitor, single point]
Cc1cc2nc(CO[C@H]3CN(Cc4ccc(C(F)(F)F)cc4)C[C@H]3F)[nH]c2cc1C	inconclusive: 31.6 µM [inhibitor, full curve]
O=C(NCc1cc(F)ccc1F)C1CCN(C(=O)c2ncn3c2COC(c2ccccc2)C3)CC1 (stereo unspecified)	inactive
O=C(c1ccccc1F)N1CCC2(CC1)CC(=O)N(c1ccccc1)c1ccccc1O2	active: 79.4 µM
COc1cccc(OCc2nnc(C(=O)N3CCC[C@@H]3c3nc4ccccc4[nH]3)n2-c2ccccc2)c1OC	inactive
O=C(NCC1Cn2cccc2C(=O)N1Cc1ccccc1)c1ccc2ncccc2c1 (stereo unspecified)	inconclusive: 89.1 µM [inhibitor, single point]
O=C(c1cn(-c2ccccc2)nn1)N1CCCCCC1c1ccco1 (stereo unspecified)	inconclusive: 89.1 µM [inhibitor, single point]
COc1ccc(-c2ccc3nnc(CNC(=O)C(C)Oc4cccc(Cl)c4)n3n2)cc1 (stereo unspecified)	inconclusive: 50.1 µM [inhibitor, partial curve, poor fit]
CNC(=O)c1cc(C)nc2onc(C3CCN(C(=O)c4ccccc4Cl)C3)c12 (stereo unspecified)	inactive

Compound	Potency
COc1cccc(C(=O)N2CCN(C(=O)c3nc4cccnc4n(CCc4ccccc4)c3=O)CC2)c1	inconclusive: 89.1 µM [inhibitor, single point]
COc1ncc(-c2ccnc(-c3nnc(C)n3CCc3ccccc3)c2)cn1	inactive
CC1=C[C@@H](CN2CCC(CO)CC2)[C@H](C(C)C)C[C@H]1Cc1nnc(-c2ccccc2)o1	inconclusive: 126 µM [inhibitor, single point]
COc1ccc(NC(=O)O[C@@H]2CO[C@H]3[C@@H]2OC[C@@H]3NC(=O)Nc2ccc(C(C)C)cc2)cc1	inactive
CC(C)N1CCN(C(=O)CCC2CCN(S(=O)(=O)c3ccccc3F)CC2)CC1	inactive
Cc1nn(-c2ccccc2)c2c1C(C1CC1)N(CC1CN(C(=O)c3ccc(F)cc3)C1)C2=O (stereo unspecified)	active: 35.5 µM
O=C(c1cn[nH]c1-n1cnnn1)N1C[C@H](CO)C[C@H](CN2CCCC2)C1	inconclusive: 10 µM [inhibitor, full curve, poor fit]
Cc1nn(C)c2nc(NCCCOC3CCCC3)sc12	active: 31.6 µM
CCCN1CCC2(CCN(C(=O)Nc3ccccc3)CC2)Oc2ccccc21	inconclusive: 89.1 µM [inhibitor, single point]
Cc1ccc(C2=NC3(CCN(C(=O)Cc4cccc(F)c4)CC3)ON2)cc1	inactive
CC1=C[C@@H](CN2CCN(c3ccccc3)CC2)[C@H](C(C)C)C[C@H]1Cc1nnc(-c2cncn2C)o1	active: 35.5 µM
CN1C[C@@H](NC(=O)CC(C)(C)CC(=O)O)C[C@H]1c1nc(-c2ccccc2)no1	inactive
COc1ccc(CN2CCCC3(CC(Cc4ccccc4)=NO3)C2)cc1 (stereo unspecified)	inconclusive: 56.2 µM [inhibitor, partial curve, poor fit]
Cc1ccc(OCc2nc(C3CCCN3C(=O)CCn3nc(C)cc3C)no2)cc1 (stereo unspecified)	inconclusive: 89.1 µM [inhibitor, single point]
O=C1CC(c2ccccc2)N(Cc2cn[nH]c2-c2cccs2)CCCCCN1 (stereo unspecified)	active: 79.4 µM
N#Cc1cccnc1-c1ccc(C(=O)N2CCC(NC(=O)c3ccc(Cl)nc3)CC2)cc1	inconclusive: 44.7 µM [inhibitor, partial curve, poor fit]
CNC(=O)c1cc(C)nc2onc(C3CCCN(C(=O)c4cccc(Cl)c4)C3)c12 (stereo unspecified)	inconclusive: 79.4 µM [inhibitor, partial curve, poor fit]
Cc1ccc(S(=O)(=O)N2CC[C@H]3NC(=O)N(c4ccc(C(C)C)cc4)C(=O)[C@H]32)cc1	inactive
CC(C)c1ccc(CN2CCc3c(n(Cc4ccccc4)n(-c4ccccc4)c3=O)C2)cc1	inconclusive: 7.94 µM [inhibitor, partial curve, poor fit]
COc1ccc(C(=O)N2CCC3(CC2)N=C(c2ccc(Cl)cc2)NO3)cc1	inconclusive: 39.8 µM [inhibitor, partial curve]
CCCOC1CCCN(Cc2c(C(=O)N(C)CCc3ccccc3)nc3sccn23)C1 (stereo unspecified)	inconclusive: 22.4 µM [inhibitor, full curve, poor fit]
CCC(C)NC(=O)C1COC2(CCN(C(=O)c3cccc(F)c3)CC2)N1C(=O)c1cccc(OC)c1 (stereo unspecified)	inconclusive: 79.4 µM [inhibitor, partial curve]

Compound	Potency
CCC(O)c1cc2n(n1)CCN(C(=O)c1ccc(-c3ccccc3)n1C)C2 (stereo unspecified)	active: 31.6 µM
O=C1CC2(CCN(Cc3cccc4ccccc34)CC2)Oc2ccccc21	active: 35.5 µM
C[C@H]1CCCN1C(=O)c1nnc(COc2ccccc2)n1-c1ccccc1	inconclusive: 89.1 µM [inhibitor, partial curve]
CCN1C(=O)CCN(C(=O)NC2CCCCC2)CC12CCOCC2	inactive
Cc1nn2c(c1-c1ccccc1-c1ccccc1)N(C(=O)CN1CCOCC1)CCC2	inactive
Cc1ccc(C)c(-c2cc3c(=O)n(CCNC(=O)c4ccncc4)ccn3n2)c1	inconclusive: 44.7 µM [inhibitor, partial curve, poor fit]
Cc1ccc(OCCC2CCN(C(=O)c3cc(CN4CCOCC4)on3)C2)cc1 (stereo unspecified)	active: 79.4 µM
O=C(NCCCN1CCCCCC1)c1ccc(CC2CCN(C(=O)C3CC3)CC2)cc1	inconclusive: 89.1 µM [inhibitor, single point]
COc1cc(OC)cc(C(=O)NCCn2ccn3nc(-c4cccc(OC)c4)cc3c2=O)c1	inactive
CS(=O)(=O)N1C[C@@H]2CN(C(=O)CCn3cccn3)C[C@]2(C(=O)O)C1	inactive
CCS(=O)(=O)N1CCC2(CC1)NCCc1c2[nH]c2ccccc12	inconclusive: 89.1 µM [inhibitor, single point]
Cc1ccccc1S(=O)(=O)N1CCC(CCC(=O)N2CCc3ccccc3C2)CC1	inconclusive: 50.1 µM [inhibitor, partial curve]
COCc1ccc2c(c1)c(OC(C)(C)C(=O)Nc1ccn(C)n1)nn2Cc1ccccc1	inconclusive: 100 µM [inhibitor, partial curve, poor fit]
COc1cc(OC)cc(N2C(=O)[C@@H]3C[C@@H](NC(=O)c4ccc(SC)cc4OC)CCN3C2=O)c1	inactive
O=C(NCCC1=CCCCC1)c1c(OCC2CC2)cc(=O)n2c1CCCCC2	inactive
O=C1c2cnc(-c3cccc(CO)c3)nc2OCCN1Cc1ccccc1	inconclusive: 12.6 µM [inhibitor, full curve, poor fit]
COc1ccc(-c2cc(C[C@H]3CNCC[C@H]3CC(=O)NCc3ccccc3)no2)cc1	active: 89.1 µM
COc1ccc(CCC(=O)N2C[C@@H](C(N)=O)[C@H](c3nc(C)no3)C2)cc1OC	inactive
CN(C)c1cc(=O)c2ccnc(-c3cccc(C(F)(F)F)c3)c2o1	inconclusive: 112 µM [inhibitor, single point]
Cn1ncc2c(C(=O)NCc3ccc(F)cc3F)cc(-c3ccc(C(F)(F)F)cc3)nc21	inactive
COc1ccc(-c2cc(C[C@@H]3CC[C@@H]4OC(=O)NC[C@H]4O3)no2)cc1	active: 100 µM
CC(C)Cc1nc(CN(C)C(=O)c2cccc(CCC(C)(C)O)c2)no1	inconclusive: 56.2 µM [inhibitor, partial curve, poor fit]
